From article PMC4336329 (PLoS ONE, 2015)
The campaign covered roughly 310,000 compounds. About 14,000 (4.5%) showed an effect of 50% or more. Effects have a minus sign here. Some of the results follow.

biological target: human ether-à-go-go-related gene (hERG) potassium channel (human, UniProt Q12809); assay: primary screen, population patch clamp on CHO cells stably expressing hERG
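Note: peak tail current of the secondary pulse compared with the same well before compound.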

human ether-à-go-go-related gene (hERG) potassium channel, sequence (Q12809 whole entry, looked up): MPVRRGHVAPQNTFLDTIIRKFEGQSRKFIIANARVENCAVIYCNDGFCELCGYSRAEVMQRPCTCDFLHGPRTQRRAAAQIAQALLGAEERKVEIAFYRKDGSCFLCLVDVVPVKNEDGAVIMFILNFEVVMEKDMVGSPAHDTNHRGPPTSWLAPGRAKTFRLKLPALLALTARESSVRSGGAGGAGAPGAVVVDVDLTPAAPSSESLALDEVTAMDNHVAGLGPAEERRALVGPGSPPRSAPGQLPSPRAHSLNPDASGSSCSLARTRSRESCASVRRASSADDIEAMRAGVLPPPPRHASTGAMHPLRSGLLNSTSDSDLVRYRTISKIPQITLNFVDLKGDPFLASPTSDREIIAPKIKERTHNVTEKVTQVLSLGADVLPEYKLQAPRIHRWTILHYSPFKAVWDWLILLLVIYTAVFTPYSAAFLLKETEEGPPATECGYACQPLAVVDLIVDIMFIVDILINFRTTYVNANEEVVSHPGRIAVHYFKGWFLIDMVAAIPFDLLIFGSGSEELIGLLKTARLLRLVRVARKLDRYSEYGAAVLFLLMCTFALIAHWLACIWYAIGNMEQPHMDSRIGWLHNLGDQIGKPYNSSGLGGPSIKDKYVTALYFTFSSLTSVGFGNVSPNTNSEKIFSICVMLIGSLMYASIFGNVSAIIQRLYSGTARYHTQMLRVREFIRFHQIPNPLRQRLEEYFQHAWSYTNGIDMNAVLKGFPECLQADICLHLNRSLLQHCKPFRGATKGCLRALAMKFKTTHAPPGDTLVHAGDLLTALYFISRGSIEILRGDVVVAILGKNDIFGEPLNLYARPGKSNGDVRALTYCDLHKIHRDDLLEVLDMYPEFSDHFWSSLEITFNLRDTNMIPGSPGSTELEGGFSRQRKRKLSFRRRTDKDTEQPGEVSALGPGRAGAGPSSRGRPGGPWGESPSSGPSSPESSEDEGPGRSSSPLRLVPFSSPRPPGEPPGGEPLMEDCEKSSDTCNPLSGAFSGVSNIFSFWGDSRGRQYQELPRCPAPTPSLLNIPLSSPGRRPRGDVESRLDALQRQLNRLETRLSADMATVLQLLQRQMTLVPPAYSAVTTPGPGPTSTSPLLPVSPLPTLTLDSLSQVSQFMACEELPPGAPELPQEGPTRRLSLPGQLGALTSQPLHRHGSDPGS

SMILES	hERG current change (%, negative = inhibition) at 10uM
CC1(C)CCC(C)(C)NC(=S)N1	21.2%
CCc1ccccc1NC(=O)CNC(=O)c1n[nH]c(=O)c2ccccc12	8.75%
C/C(=N\N=C1\NC(=O)CS1)c1cccs1	21.6%
O=C(Nc1ccc2c(c1)OCO2)c1c(Cl)nc2sccn12	3.72%
CCOC(=O)N1CCN(C(=O)c2cn(C)c3ccc(S(=O)(=O)N(C)C4CCCCC4)cc3c2=O)CC1	-29.4%
COc1cc2c(cc1OC)C(C)N(CCN1C(=O)c3ccccc3C1=O)CC2 (centres unmarked)	17.5%
O=[N+]([O-])c1ccccc1/C=N\N1CCN(c2ccccc2)CC1	7.53%
COCCNC(=O)C(=O)c1c(-c2ccccc2)[nH]c2ccccc12	1.69%
Cn1c(O)c(N=NC(=O)C2COc3ccccc3O2)c2ccccc21 (centres unmarked)	-18.6%
O=C(CSc1nc(C2CC2)nc2sc3c(c12)CCCC3)NCc1ccco1	-6.99%
COc1cccc(-c2nc3ccc(C(=O)N4CCCC(O)C4)cc3o2)c1 (centres unmarked)	15.3%
COC(=O)c1[nH]c2ccc(C)cc2c1NC(=O)CN1CCCC(C)(C)C1	0.331%
COc1ccc2c(c1)C(=C(C#N)C#N)C(=O)N2CCc1ccccc1	7%
Cc1cccc(OCC(O)Cn2c(=N)n(CCN3CCCCC3)c3ccccc32)c1.Cl (centres unmarked)	-80.5%
COc1ccc(-n2c(=S)[nH]c(=O)c3cccnc32)cc1	15.6%
CCOC(=O)c1ccccc1NC(=O)COC(=O)CSc1ccccc1	10.8%
CC(C)Cn1cc(C(=O)NCCCN2CCCC2=O)c2c3ccccc3n(C)c2c1=O	-5.95%
Cc1ccc(S(=O)(=O)NCC(=O)NCc2ccncc2)cc1	2.32%
CCN1CC=C(c2c[nH]c3ccccc23)CC1	-8.39%
O=C(NCCCNc1ccnc2cc(Cl)ccc12)c1ccccc1F	-72.4%

SMILES	hERG current change (%, negative = inhibition) at 10uM
CC(C)(C)c1cc(NCc2ccccn2)n2ncc(-c3ccccc3)c2n1	15.6%
O=C1C=C(Nc2ccccc2)C(=O)c2ccccc21	16.8%
CCC(C)(C)NC(=O)/C=C/c1ccc(OC)c(S(=O)(=O)N2CCOCC2)c1	3.1%
CCC(C)c1ccc(C(C)NC(=S)NCc2ccc(F)cc2)cc1 (centres unmarked)	13.6%
CN(CC(=O)Nc1ccccc1C(F)(F)F)C(=O)CSCc1ccccc1	-8.02%
O=C1CCCCC1Sc1nnc(Nc2ccccc2)s1 (centres unmarked)	-7.47%
CC(COc1ccccc1Cc1ccccc1)N1CCCCC1.O=P(O)(O)O (centres unmarked)	-70.1%
Cc1cccc(C)c1NC1=NC2(CCCCC2)N=C(N)N1	9.71%
CCOc1cc(/C=N/NC(=O)c2cc(C)[nH]n2)ccc1OC(=O)c1ccc([N+](=O)[O-])cc1	18.1%
CCCCN(C(=O)c1ccc2c(c1)OCO2)c1c(N)n(CCCC)c(=O)[nH]c1=O	25.7%
CC1CN(C(=S)Nc2ccccc2)CC(C)O1 (centres unmarked)	2.54%
CCCCNC(=S)Nc1ccc(C(F)(F)F)cc1	-52.8%
O=C(Cn1nnc(-c2ccc3c(c2)OCO3)n1)NCc1ccccc1	11.3%
O=C(COC(=O)c1cccs1)NCC1CCCO1 (centres unmarked)	10.6%
COc1ccc(C(=O)C2CCN(C(=O)Nc3ccccc3C)CC2)cc1	9.14%
Cc1nc2nc(SCc3ccccc3)[nH]n2c(=O)c1CCC(C)C	-22.4%
CNC(=O)c1sccc1SCc1c(Cl)cccc1Cl	-13.4%
Cc1cc(C(=O)COc2ncnc3sccc23)c(C)n1C	-1.03%
Cc1nc(C)c(/C(O)=C/c2nc3ccc([N+](=O)[O-])cc3oc2=O)o1	19.8%
CCOC(=O)c1c(C)[nH]c(/C(C)=N/O)c1C	15%

SMILES	hERG current change (%, negative = inhibition) at 10uM
COc1ccc(CNC(=O)COC(=O)C2CCN(S(=O)(=O)c3ccccc3C(F)(F)F)CC2)cc1	-4.19%
CCN(CC(=O)Nc1c(C(=O)OC)[nH]c2ccc(Cl)cc12)c1ccc2c(c1)OCO2	20.3%
COC(=O)c1cccc(N2C(=O)C3CC=CCC3C2=O)c1 (centres unmarked)	7.23%
CCOC(=O)C1CCCN(C(=O)c2ccc(CS(=O)(=O)Cc3ccccc3C)o2)C1 (centres unmarked)	-22%
COc1ccccc1-c1nnc(Nc2nc3c(OC)cccc3s2)o1	7.81%
C=CCNC(=O)CN1CCC(c2nc3cc(C)c(C)cc3[nH]2)CC1	-39.6%
COc1ccc(N2CCN(Cc3nc4scc(-c5cccs5)c4c(=O)[nH]3)CC2)cc1	8.57%
CCN(CC)CC(=O)N1CCCC(C(=O)c2ccccc2OC)C1 (centres unmarked)	-10.3%
O=C1CNC(=S)N1C(CO)c1ccccc1 (centres unmarked)	22.2%
Cc1ccc(NC(=O)NCCCN2CCCC2=O)cc1Cl	5.63%
Cc1ccc(NS(=O)(=O)c2cccc3nsnc23)cc1C	-5.57%
CSc1ccccc1OCc1cc(C(=O)N(Cc2nccn2C)C(C)C)no1	-7.73%
CCCCCCNC(=O)Cc1nc2nc(C)cc(C)n2n1	-0.975%
CCc1ccc(NC(=O)CCCNC(=O)Cn2cnc3sc(C)c(C)c3c2=O)cc1	3.86%
Cc1nccc(-c2ccc(-n3cnc4ccccc43)cc2)n1	-20.3%
COC(=O)CCCNS(=O)(=O)c1ccc2ccccc2c1	2.23%
COc1cc(S(=O)(=O)NCc2ccccc2)ccc1F	6.67%
Cc1ccc(CNC(=O)C2CC(c3ccc([N+](=O)[O-])cc3)=NO2)cc1 (centres unmarked)	-37.3%
COc1cc(/C=C2\C(=N)N3N=C(CC(=O)N4CCOCC4)SC3=NC2=O)cc(OC)c1OC	15.6%
